Results from PubChem BioAssay AID1478 (National Center for Advancing Translational Sciences (NCATS), 2009).
The whole screen tested about 200,000 compounds, of which about 860 (0.43%) were called active. The inconclusive results got no clear call from the source; some entries with a clear call stand among them for comparison. The call rests on the fitted dose curve; in most records, active means well fitted inhibition curve with a large enough effect; inconclusive means small, poorly fitted or top-dose-only effect; inactive means flat fitted curve, though single readings scatter. A potency beside an inconclusive call is a rough fit, not a confirmed value.

Molecular target: Cruzipain (Trypanosoma cruzi) (UniProt P25779)
UniProt P25779, sequence (P25779 whole entry, looked up): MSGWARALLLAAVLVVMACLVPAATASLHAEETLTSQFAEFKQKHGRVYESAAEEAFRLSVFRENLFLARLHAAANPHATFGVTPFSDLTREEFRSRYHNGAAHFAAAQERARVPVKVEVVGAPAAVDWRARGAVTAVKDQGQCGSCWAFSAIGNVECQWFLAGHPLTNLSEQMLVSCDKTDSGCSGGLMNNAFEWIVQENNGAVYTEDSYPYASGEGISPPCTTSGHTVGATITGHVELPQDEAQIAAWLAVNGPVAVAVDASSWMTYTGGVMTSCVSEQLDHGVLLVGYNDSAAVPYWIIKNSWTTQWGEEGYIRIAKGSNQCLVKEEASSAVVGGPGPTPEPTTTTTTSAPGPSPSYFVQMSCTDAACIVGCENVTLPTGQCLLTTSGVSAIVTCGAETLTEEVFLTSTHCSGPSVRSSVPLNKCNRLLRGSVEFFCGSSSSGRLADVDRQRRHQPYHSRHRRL
Test: qHTS Assay for Promiscuous and Specific Inhibitors of Cruzain (with detergent); further: nearly all actives have a fitted effect of over 40% in size;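 on max response, negative = inhibition: plate controls were neutral wells for no effect and buffer without enzyme for full effect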
Details: purified cruzain, Z-FR-AMC fluorescence, 0.01% Triton
Summary of the method: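 Detergent-containing arm of a paired screen for aggregation-based inhibition: 0.01% Triton X-100 present. Cruzain at 1.5 nM cleaved 2 uM Z-FR-AMC at pH 5.5 with 5 mM DTT; AMC fluorescence gain over 60 s measured activity.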
Potency means the concentration at half of the fitted maximal effect; tags describe the fitted curve by direction and shape.

Structure (SMILES)	Potency	max response, negative = inhibition
CCCCn1c(NC(=O)c2ccccc2)c(C#N)c2nc3ccccc3nc21	inconclusive: 28.2 µM [inhibitor, single point]	–
Cc1ccc2c(Cl)cc(Cl)c(OCC(=O)NCc3ccco3)c2n1	inconclusive: 31.6 µM [inhibitor, single point]	–
O=c1c2ccccc2[nH]c(=S)n1CCC1=CCCCC1	inconclusive: 39.8 µM [inhibitor, single point]	–
O=C(NC(NC(=S)Nc1ccc(Cl)cc1)C(Cl)(Cl)Cl)c1ccco1 (stereo unspecified)	inconclusive: 12.6 µM [inhibitor, partial curve]	–
CCOP(=O)(OCC)c1nc(-c2cccc3ccccc23)oc1NCc1ccccc1	inconclusive: 31.6 µM [inhibitor, single point]	–
CC(=O)C1=C(c2ccc(Cl)c(Cl)c2)N(C(C)=O)n2cnnc2S1	inconclusive: 11.2 µM [inhibitor, partial curve]	–
CN(C)C(=O)c1ccc(-c2ccc3ncnc(NCc4cccs4)c3c2)cc1	inconclusive: 39.8 µM [inhibitor, single point]	–
CCOC(=O)c1c(CSc2ccccc2)n(C)c2cc(Br)c(OCC(O)CNC(CO)(CO)CO)cc12 (stereo unspecified)	inconclusive: 35.5 µM [inhibitor, single point]	–
O=C(C#Cc1cccc([N+](=O)[O-])c1)c1ccccc1	active: 8.91 µM	–
C[C@@H](C(=O)Cc1ccc2ccccc2c1)[C@@H]1C[C@@]1(C)[C@@H](NP(=O)(c1ccccc1)c1ccccc1)c1ccccc1	–	inactive: -4.02%
CN(C)Cc1c(O)c(Cl)cc2c3c(c(=O)oc12)CCCC3	inconclusive: 31.6 µM [inhibitor, single point]	–
CC(C)CN(CC(C)C)c1ccc(C=C2C(=O)NC(=S)NC2=O)cc1[N+](=O)[O-]	inconclusive: 25.1 µM [inhibitor, single point]	–
CCCCc1cc(=O)oc2c(CN(CC)CC)c(O)c(Cl)cc12	active: 28.2 µM	–
Cn1c(=O)c(=O)n(C)c2cc(N3CCCC3)c(NC(=O)c3ccc(C(C)(C)C)cc3)cc21	–	inactive: -4.62%
Cc1ccc2c(c1)-c1c(cnn1CC(=O)N1CCCN(Cc3ccccc3F)C1)CO2	–	inactive: -3.56%
CNc1nc(N/N=C/c2ccc([N+](=O)[O-])cc2)nc(Nc2ccccc2)n1	–	inactive: -11.1%
Cc1ccc(Cn2c(=O)c3cccnc3n(Cc3ccc(F)cc3)c2=O)cc1	–	inactive: 0.287%
Cc1ccc(CSCC(=O)N/N=C/c2ccc(OCC(=O)Nc3ccc(C)cc3)cc2)cc1	inconclusive: 12.6 µM [inhibitor, partial curve]	–
CC(=O)NCCC(=O)Nc1nc(-c2cccs2)c(-c2cccs2)s1	–	inactive: -6.37%
COc1cc(C(=O)O/N=C2\C=CC(=O)C(C)=C2)cc(OC)c1OC	inconclusive: 28.2 µM [inhibitor, single point]	–
Cc1cccc(Cn2c(=O)n(-c3ccc(Cl)c(Cl)c3)c(=O)c3c(C)c(C)sc32)c1	–	inactive: -1.83%
Cc1ccccc1NC(=O)CC1SC(=O)N(c2ccccc2)C1=O (stereo unspecified)	inconclusive: 15.8 µM [inhibitor, partial curve]	–
Cc1ccc(S(=O)(=O)N2CCOCC2)cc1NC(=O)COC(=O)CNC(=O)c1ccc(C(C)(C)C)cc1	–	inactive: -2.28%
C/C(=N\Nc1nc(-c2cc(C)ccc2C)cs1)c1cc2ccccc2oc1=O	inconclusive: 25.1 µM [inhibitor, single point]	–

Structure (SMILES)	Potency	max response, negative = inhibition
O=C1c2ccccc2C(=O)c2c(O)c(O)cc(O)c21	inconclusive: 28.2 µM [inhibitor, partial curve, poor fit]	–
COc1ccc(-c2cc(=O)oc3c4c(ccc23)OCN(Cc2cccc(OC)c2)C4)cc1	inconclusive: 28.2 µM [inhibitor, single point]	–
COc1cc(NC(=O)c2ccc(-n3cnc4cccnc43)cc2)cc(OC)c1	–	inactive: -2.39%
O=C(NCCc1csc2nc(-c3cccc(F)c3)nn12)c1ccc(Br)o1	–	inactive: -4.75%
O=C1c2cccc3cccc(c23)N1CN1CCN(c2ccccn2)CC1	inconclusive: 39.8 µM [inhibitor, single point]	–
CC(C)Oc1ccc(Br)cc1/C=N\NC(N)=S	active: 0.251 µM	–
COc1ccc(-c2nc(C)sc2CC(=O)O)cc1	–	inactive: 4.01%
CCCCN(CC)CCNC(=O)C1CCN(c2nnc(C)c3c(C)n(-c4ccc(C)cc4)nc23)CC1	–	inactive: -4.23%
CCCNc1oc(-c2cccc3ccccc23)nc1C#N	inconclusive: 6.31 µM [inhibitor, single point]	–
COc1ccc(Br)cc1C1CC(=O)N2CN(Cc3ccccc3)CSC2=C1C#N (stereo unspecified)	inconclusive: 31.6 µM [inhibitor, single point]	–
CN(C)c1ccc(-c2noc(-c3ccccc3O)n2)cc1	active: 22.4 µM	–
Cc1ccc2ccc3cc(C(=O)Nc4ccc(C)c(F)c4)nc3c2[nH]1	active: 8.91 µM	–
COc1ccc(CCn2c(N)c(S(=O)(=O)c3cccs3)c3nc4ccccc4nc32)cc1OC	–	inactive: -10.2%
O=C(NCc1ccco1)c1nc2nc(-c3cccs3)cc(C(F)(F)F)n2n1	inconclusive: 31.6 µM [inhibitor, single point]	–
Cc1c(C(=O)NC(Cc2ccccc2)c2nc3ccccc3[nH]2)cccc1[N+](=O)[O-] (stereo unspecified)	inconclusive: 25.1 µM [inhibitor, single point]	–
CCOC(=O)COc1ccccc1-c1ccno1	inconclusive: 31.6 µM [inhibitor, single point]	–
C/C(=N\Nc1nc2ccccc2[nH]1)c1cccs1	inconclusive: 25.1 µM [inhibitor, single point]	–
CCOC(=O)c1sc(N/N=C/c2cccc(C)c2)nc1C	active: 1.41 µM	–
Cc1ccc(N2C(=O)CSC23C(=O)N(CC(=O)Nc2ccc(C)cc2C)c2ccccc23)cc1 (stereo unspecified)	–	inactive: -4.09%
Cc1ccc2cc(/C=N/Nc3nc4ccccc4[nH]3)c(Cl)nc2c1	inconclusive: 28.2 µM [inhibitor, single point]	–
c1cn2cc(CSC3CCCCC3)nc2s1	–	inactive: -0.703%
COc1ccnc(CSC(N)=Nc2ccccc2OC)c1	inconclusive: 22.4 µM [inhibitor, partial curve]	–
Cc1ccc(/C=C(\NC(=O)c2ccccc2)C(=O)OCc2ccccc2)cc1	active: 7.94 µM	–
COc1ccccc1-c1nc(C#N)c(N2CCCCCC2)o1	inconclusive: 39.8 µM [inhibitor, single point]	–

Structure (SMILES)	Potency	max response, negative = inhibition
CCc1ccc(C(=O)c2cn(Cc3ccccc3)c3cc(OC)c(OC)cc3c2=O)cc1	–	inactive: -11.2%
CCCCn1c(-c2cccs2)nc2nc3ccccc3nc21	inconclusive: 28.2 µM [inhibitor, single point]	–
N#CC(C#N)=Cc1cc2ccccc2nc1N1CCCCC1	inconclusive: 14.1 µM [inhibitor, partial curve]	–
CC(=O)Nc1cccc(C(=O)/C=C/c2ccc(N(C)C)cc2)c1	inconclusive: 28.2 µM [inhibitor, single point]	–
Cc1nc2c(ccc3nc(NC(=O)c4ccc5c(c4)OCCO5)sc32)s1	active: 14.1 µM	–
Cc1ccc(C(=O)Nc2ccc3oc(-c4ccncc4)nc3c2)c(Cl)c1	–	inactive: -9.87%
COc1ccccc1C(=O)NC1=NC(c2ccc(Br)cc2)CC(=O)N1 (stereo unspecified)	–	inactive: -9.48%
COc1ccc(S(=O)(=O)N2CCCC2C(=O)Nc2nnc(-c3cccnc3)s2)cc1 (stereo unspecified)	inconclusive: 22.4 µM [inhibitor, single point]	–
Clc1ccc(Br)cc1-c1nc(-c2ccncc2)no1	inconclusive: 12.6 µM [inhibitor, single point]	–
O=C(c1cn(-c2ccccc2)nc1-c1ccccc1)n1nnc2ccccc21	–	inactive: -3.1%
O=C(CNC(=O)c1ccccc1F)OCC(=O)N1CCCCC1	active: 15.8 µM	–
Cc1nn(-c2ccc(N3CCOCC3)nn2)c(C)c1CCC(=O)Nc1ccc(F)cc1F	–	inactive: -1.38%
C1CCCNCC1	–	inactive: 11%
COc1cc2c3nnc(-c4ccc(F)cc4)c-3cn(Cc3ccc(C)cc3)c2cc1OC	inconclusive: 28.2 µM [inhibitor, single point]	–
Cc1ccc2c(c1)C(C)(c1ccccc1)CC(C)(C)N2C(=O)c1ccc(F)cc1 (stereo unspecified)	–	inactive: -0.37%
O=C(CN1C(=O)COc2ccc(S(=O)(=O)N3CCOCC3)cc21)N1CCN(c2ccc(Cl)cc2)CC1	–	inactive: -5.53%
Cc1sc(/C=C2\C(=O)ON=C2c2ccccc2)cc1Br	inconclusive: 2.82 µM [inhibitor, full curve, poor fit]	–
CN1CCN(c2ncc3nc(-c4ccccc4)c(=O)n(CCC#N)c3n2)CC1	inconclusive: 28.2 µM [inhibitor, single point]	–
N#Cc1nc(-c2cccs2)oc1NCc1ccco1	inconclusive: 35.5 µM [inhibitor, single point]	–
CCn1c2ccccc2c2cc(/C=N/NC(=O)c3ccc(O)cc3)ccc21	inconclusive: 25.1 µM [inhibitor, single point]	–
CN1CCN(c2nc(-c3ccc4c(c3)OCO4)nc3ccccc23)CC1	–	inactive: -2.67%
CCCN1CCN(c2ncnc3sc(C(=O)Nc4cccc(Cl)c4C)c(C)c23)CC1	active: 2.24 µM	–
O=C(O)C1=CC(=C(c2ccc(O)c(C(=O)O)c2)c2ccc(O)c(C(=O)O)c2)C=CC1=O	inconclusive: 10 µM [inhibitor, partial curve]	–
